# About 650 (41%) of roughly 1,600 compounds were called active. The set was probably picked from earlier hits. Inconclusive means that the source gave no clear call. Such entries were picked first, then a sample of the others. The call rests on the fitted dose curve; in most records, active means well fitted inhibition curve with a large enough effect; inconclusive means small, poorly fitted or top-dose-only effect; inactive means no such curve, though single readings can be large or run the other way. Potencies of inconclusive entries are left out as doubtful fits.
# Experiment: qHTS for Inhibitors of TGF-b: CCL64 Cells Orthogonal Assay for Cherry Picks; further: nearly all actives have a fitted effect of over 65% in size;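 on activity, negative = inhibition: 0% = stimulated DMSO wells and full inhibition = unstimulated wells without TGF-beta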
# Conditions: CCL64 CAGA-GFP reporter, TGF-b stimulated, GFP fluorescence, 18 h; activity, negative = inhibition: at 46.1 µM (top of the series)
# Summary of the method: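 CCL64 cells carrying a CAGA-GFP reporter (1000/well, DMEM with 1% FBS) were pre-incubated 2 h at 37 degrees C, given compound, then stimulated with 500 pg/mL TGF-beta for 18 h. Per-cell GFP fluorescence was summed per well.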
# Potency means the concentration at half of the fitted maximal effect; tags describe the fitted curve by direction and shape.
SMILES,Potency,"activity, negative = inhibition"
O=C(Nc1c(Cl)ccc2nsnc12)c1ccc([N+](=O)[O-])o1,"inconclusive [inhibitor, single point]",–
COc1ccc(C2CC(c3c(-c4ccccc4)c4cc(Cl)ccc4[nH]c3=O)=NN2S(C)(=O)=O)cc1OC (centres undefined),"inconclusive [inhibitor, partial curve]",–
COC(=O)C1CCC(=O)N1C(c1ccc(OC)cc1)c1cc(OC)c(OC)c(OC)c1 (centres undefined),active: 5.8 µM,–
CC(C)C[C@H]1CNC(=S)N1C[C@H]1CCCN1C[C@H](Cc1ccc(O)cc1)N1C[C@H](CC(C)C)N(CC2CCCCCC2)C1=S,active: 10.3 µM,–
C=CCC[C@H](Cc1ccc(F)cc1)C(=O)OC[C@@H](Cc1c[nH]c2ccccc12)NC(=O)[C@H](CC=C)CC(=O)N(CCO)Cc1ccccc1,active: 18.4 µM,–
Cc1ccc(S(=O)(=O)Nc2cccc3cccnc23)c([N+](=O)[O-])c1,"inconclusive [inhibitor, partial curve]",–
CC[C@]12c3[nH]c4ccc(Cl)cc4c3CCN1C(=O)[C@@H](CC(=O)NCc1cccc(C(F)(F)F)c1)C[C@@H]2C(=O)N1CCN(C(=O)C2CC2)CC1,"inconclusive [inhibitor, single point]",–
CCOc1ccccc1-n1c(CNc2ccc(F)cc2)nnc1SCC(=O)NCc1ccco1,–,inactive: 0.231%
CN(C)S(=O)(=O)c1cc(NC(=O)CSc2nn(-c3ccc(Cl)cc3)c(=S)s2)ccc1Cl,"inconclusive [inhibitor, single point]",–
CC1(C(=O)NCc2ccc3c(c2)OCO3)CCN1Cc1csc2ccccc12 (centres undefined),active: 3.66 µM,–
CCN(CC)C(=O)CSc1nnc2nnc3cc(Cl)ccc3n12,"inconclusive [inhibitor, single point]",–
COc1cccc(/C=N/Nc2ncnc(Cl)c2N)c1O,active: 5.17 µM,–
O=C(COc1ccc(Cl)cc1Cl)NCCSc1ccc(Cl)cc1,"inconclusive [inhibitor, partial curve, poor fit]",–
CCc1ccc(S(=O)(=O)Nc2c(NC3CCCCC3)c3ccccc3oc2=O)cc1,–,inactive: 13.2%
COCCOC(=O)c1[nH]c2c(c1C)C(=O)CC(c1ccccc1)C2 (centres undefined),active: 6.51 µM,–
CC(C)NC(=O)N(C)C[C@H]1Oc2ccc(NS(=O)(=O)c3ccc(Cl)cc3)cc2CC(=O)N([C@@H](C)CO)C[C@@H]1C,–,inactive: 1.72%
C[C@H](CO)N1C[C@H](C)[C@H](CN(C)S(=O)(=O)c2cccs2)Oc2ccc(NC(=O)Nc3ccc4c(c3)OCO4)cc2CC1=O,–,inactive: -16.2%
COc1cc(OC)c2c(-c3cccc(-c4ccc(NC(C)=O)cc4)c3)cc(=O)oc2c1,active: 2.06 µM,–
CC(Nc1ccccc1CO)C(=O)Nc1cccc(Cl)c1Cl (centres undefined),–,inactive: -20.3%
CCC1=Nc2cc(C(=O)NCc3ccco3)ccc2Sc2ccc(C)cc21,active: 1.46 µM,–
Cc1onc(-c2c(F)cccc2Cl)c1C(=O)Nc1nnc(C(F)(F)F)s1,"inconclusive [inhibitor, partial curve, poor fit]",–
Cc1nc2ccc(S(=O)(=O)NCC(=O)Nc3cccc(F)c3)cc2s1,–,inactive: -8.83%
CN(C)S(=O)(=O)N1CCc2ccc(NC(=O)c3ccc(C(F)(F)F)cc3)cc2C1,–,inactive: -24.2%

SMILES,Potency,"activity, negative = inhibition"
Cc1ccc(C2(c3ccccc3)NC(=O)N(CC(=O)NCc3ccccc3)C2=O)cc1C (centres undefined),"inconclusive [inhibitor, single point]",–
O=C(Nc1nc2ccc(F)cc2s1)c1ccc([N+](=O)[O-])o1,"inconclusive [inhibitor, partial curve, poor fit]",–
O=C(COc1ccc(-c2nnc(N3CCCCC3)c3ccccc23)cc1)N1CCCCC1,–,inactive: -34.9%
COc1ccc([C@H]2CC(=O)C=C(c3ccc(Oc4ccccc4)cc3)C2)cc1OC,"inconclusive [inhibitor, single point]",–
CCN(CC)S(=O)(=O)c1cccc(NC(=O)c2ccc(-n3nc(C)cc3C)cc2)c1,–,inactive: -0.938%
CN(CC(=O)Nc1cccc(F)c1)C(=O)c1cccc(S(=O)(=O)N2CC3(C)CC2CC(C)(C)C3)c1 (centres undefined),"inconclusive [inhibitor, single point]",–
O=S(=O)(Nc1ccc2c(c1)OCCO2)c1ccc2oc3ccccc3c2c1,"inconclusive [inhibitor, single point]",–
O=C(Nc1cc(Sc2ccccn2)cc([N+](=O)[O-])c1)c1cccc(F)c1,active: 13 µM,–
Cc1ccc(OCCNC(=O)[C@H]2O[C@@H](n3cnc4c(N)ncnc43)[C@H](O)[C@@H]2O)cc1C,–,inactive: -1.84%
CC1(C(=O)NCc2cccc3ccccc23)CCN1C(=O)C1(c2ccccc2)CCCC1 (centres undefined),"inconclusive [inhibitor, single point]",–
NC(Cc1ccc(C(F)(F)F)cc1)c1csc(Nc2cnccn2)n1 (centres undefined),"inconclusive [inhibitor, single point]",–
O=S(=O)(c1ccc(NC(=S)NN=Cc2ccccc2O)cc1)N1CCCCC1,"inconclusive [inhibitor, full curve]",–
CCCc1nc([N+](=O)[O-])c(S(=O)(=O)c2ccccc2)n1CC(C)C,active: 16.4 µM,–
COc1ccc(C(=O)/C(C#N)=N/Nc2ccccc2[N+](=O)[O-])cc1,"inconclusive [inhibitor, single point]",–
COc1cccc(C2c3cc4c(cc3OC(NNC(N)=O)C2C)OCO4)c1O (centres undefined),"inconclusive [inhibitor, partial curve]",–
CCOc1ccccc1NC(=O)c1nc(S(=O)(=O)Cc2ccccc2)ncc1Cl,active: 4.61 µM,–
CC(C)c1ccc(/C=C(\c2nc3ccccc3[nH]2)S(=O)(=O)c2ccccc2)cc1,active: 4.61 µM,–
O=C(CNc1ccc(Cl)c(C(F)(F)F)c1)N1CCN(S(=O)(=O)c2ccccc2)CC1,–,inactive: -25.1%
O=S(=O)(NC1CCCC1)c1ccc(S(=O)(=O)N2CCc3ccccc32)cc1,–,inactive: -2.41%
O=C(Nc1nnc(SCc2ccc(F)cc2)s1)c1ccccn1,active: 18.4 µM,–
O=C(CSC1=NNC(c2ccccn2)S1)Nc1ccc(C(F)(F)F)cc1 (centres undefined),"inconclusive [inhibitor, single point]",–
Cn1c(/C=C/c2ccc([N+](=O)[O-])o2)nc2ccccc2c1=O,active: 5.17 µM,–
Nc1ncnc2c1ncn2[C@@H]1O[C@H](C(=O)NCc2ccc(OC(F)(F)F)cc2)[C@@H](O)[C@H]1O,–,inactive: -14.9%

SMILES,Potency,"activity, negative = inhibition"
O=C(Nn1c(SCc2ccc(F)cc2)nc2ccsc2c1=O)c1ccccc1,"inconclusive [inhibitor, single point]",–
CCOc1ccc(C(CN2CCOCC2)C(C)=O)cc1OC (centres undefined),active: 16.4 µM,–
Cc1cccc(N2CCN(C(=O)C3COc4ccccc4O3)CC2)c1C (centres undefined),–,inconclusive: -24.2% [inhibitor]
O=S(=O)(c1ccc2ccccc2c1)N1CCN(C2Cc3ccccc3C2)CC1,–,inactive: 11.2%
Fc1ccc(CNc2nc(-c3ccccc3)nc3ccccc23)cc1,"inconclusive [inhibitor, single point]",–
COc1cccc(-c2csc(NC3OC(=O)c4c3ccc(OC)c4OC)n2)c1 (centres undefined),"inconclusive [inhibitor, single point]",–
C[C@H](NC(=O)c1[nH]cnc1C(=O)Nc1ccc(CNC(=O)OC(C)(C)C)cc1)C(=O)OC(C)(C)C,–,inactive: -28.3%
Cc1ccnc(NC(=O)C2CCN(S(=O)(=O)c3c(C)c(C)cc(C)c3C)CC2)c1,"inconclusive [inhibitor, single point]",–
O=c1c(Cc2ccc(Cl)cc2Cl)c(O)ccn1Cc1ccc(Cl)cc1,"inconclusive [inhibitor, single point]",–
Cc1cscc1-c1ccc(C(=O)Nc2c(C)cccc2C)o1,–,inactive: -29.2%
Cc1ccc(NC(=O)CN2CC(C)SC2=NC2CCCCC2)cc1 (centres undefined),–,inactive: 7.88%
O=C(Nc1ccc(F)cc1F)Nc1sccc1-c1nc2ccccc2s1,"inconclusive [inhibitor, single point]",–
OCC1OC(n2cnc3c(NCc4ccccc4O)ncnc32)C(O)C1O (centres undefined),"inconclusive [inhibitor, partial curve, poor fit]",–
Cc1cc(C)nc(/N=C(\N)Nc2ccc(SC(F)F)cc2)n1,"inconclusive [inhibitor, single point]",–
FC(F)(F)c1ccccc1Cc1c(-c2ccccc2)nc2c3ccccc3ccn12,"inconclusive [inhibitor, single point]",–
CCn1nc(C(=O)OC(C(=O)c2c[nH]c3ccccc23)c2ccccc2)c2ccccc2c1=O (centres undefined),"inconclusive [inhibitor, single point]",–
O=C(CN(CCc1ccccc1)S(=O)(=O)c1ccc(Cl)cc1)N/N=C/c1ccc2c(c1)OCO2,–,inactive: -0.0317%
CC(NC1=CC(=O)c2cccnc2C1=O)C(O)c1ccccc1 (centres undefined),"inconclusive [inhibitor, single point]",–
CCCCn1nnnc1C(c1cccc2ccccc12)N1CCN(C/C=C/c2ccccc2)CC1 (centres undefined),"inconclusive [inhibitor, partial curve, poor fit]",–
COc1cc(OC)cc(-c2c(-c3cccs3)c3cc(-c4cnc(OC)nc4)ccc3n2C)c1,–,inactive: -11.4%
COc1ccc(OC)c(S(=O)(=O)Nc2cc(Cl)cc(Cl)c2)c1,–,inactive: -27.1%
Cn1c(C(=O)N2CCCC(C(=O)NCCCSC3CCCCC3)C2)cc2sccc21 (centres undefined),"inconclusive [inhibitor, single point]",–
Cc1ccc(S(=O)(=O)Nc2ccc3c(c2)C(=O)N([C@H](C)CO)C[C@@H](C)[C@@H](CN(C)C(=O)Nc2cccc4ccccc24)O3)cc1,–,inactive: 9.21%

# From PubChem BioAssay AID720536 (National Center for Advancing Translational Sciences (NCATS), 2013)
